The values that follow come from the supplement of paper PMC4604168 (melanoma cell lines).

Molecules are shown by their SMILES. The list shows a part of the results. Most values come without repeats; read them as rough.
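Also: cells treated in 1,536-well plates, then fixed and DAPI-stained, with nuclei counted from automated high-throughput microscope images.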

This assay deals with A101D. As to the kind of experiment: cell count relative to DMSO control; melanoma cells; higher = more viable cells. The following applies: library dose: standard library concentration; 72 h; first compound 2 µM.
`C[C@@H](N)c1ccc(C(=O)Nc2ccnc3[nH]ccc23)cc1` + Cc1cc([N+](=O)[O-])ccc1NS(=O)(=O)c1cc(Cl)ccc1Cl [FH535] (partner dose 5 µM) registered a cell count of 50.1%. As for `CCCCCCCCCCCCCCCCCCOP(=O)([O-])OC1CC[N+](C)(C)CC1` [Perifosine] + CCN(CC)CCCCNc1ncc2cc(-c3cc(OC)cc(OC)c3)c(NC(=O)NC(C)(C)C)nc2n1 [PD173074] (partner dose 0.5 µM), the cell count was determined as 102%. In turn, `C[C@@H](N)c1ccc(C(=O)Nc2ccnc3[nH]ccc23)cc1` + c1cc(-c2cnn3cc(-c4ccc(OCCN5CCCCC5)cc4)cnc23)ccn1 [Dorsomorphin] (partner dose 2 µM) had a cell count of 88.8%. As to `C[C@@H](N)c1ccc(C(=O)Nc2ccnc3[nH]ccc23)cc1` + Nc1nc(F)nc2c1ncn2[C@@H]1O[C@H](CO)[C@@H](O)[C@@H]1O [fludarabine] (partner dose 1 µM), the cell count was 92.4%. The result for `C[C@@H](N)c1ccc(C(=O)Nc2ccnc3[nH]ccc23)cc1` + CN(NC(=O)CC(=O)NN(C)C(=S)c1ccccc1)C(=S)c1ccccc1 [STA4783] (partner dose 0.03 µM) reads 23.2%.

As for `CCCCCCCCCCCCCCCCCCOP(=O)([O-])OC1CC[N+](C)(C)CC1` [Perifosine] + COc1cc2ncnc(Nc3ccc(Oc4ccccc4)cc3)c2cc1OC [SrcI1] (partner dose 10 µM), the cell count was found to be 64.2%. As to `CCCCCCCCCCCCCCCCCCOP(=O)([O-])OC1CC[N+](C)(C)CC1` [Perifosine] + Cc1cc(Nc2cc(N3CCN(C)CC3)nc(/C=C/c3ccccc3)n2)n[nH]1 [ENMD2076] (partner dose 0.2 µM), the cell count was found to be 67.1%.

In turn, `C[C@@H](N)c1ccc(C(=O)Nc2ccnc3[nH]ccc23)cc1` + O=c1cc(-c2cccc3c2Sc2ccccc2S3)oc(N2CCOCC2)c1 [KU55933] (partner dose 5 µM) came in with a cell count of 76.4%. The result for `Cn1sc(=O)n(Cc2ccccc2)c1=O` + O=c1cc(-c2cccc3c2Sc2ccccc2S3)oc(N2CCOCC2)c1 [KU55933] (partner dose 5 µM) reads 92%; that for `CCCCCCCCCCCCCCCCCCOP(=O)([O-])OC1CC[N+](C)(C)CC1` [Perifosine] + O=C1NC(=O)/C(=C/c2ccc(-c3ccc(F)cc3O)o2)S1 [AS252424] (partner dose 5 µM), 91.4%; that for `Cn1sc(=O)n(Cc2ccccc2)c1=O` + Oc1cc(-c2nc(-c3ccccc3)[nH]c2-c2ccncc2)ccc1Cl [L779450] (partner dose 1 µM), 66.7%. The compound `Cn1sc(=O)n(Cc2ccccc2)c1=O` + Oc1nc(-c2ccc(C(F)(F)F)cc2)nc2c1CSCC2 [XAV939] (partner dose 10 µM) gave a cell count of 88.9%. The result for `Cn1sc(=O)n(Cc2ccccc2)c1=O` + COc1ccc(C2=N[C@@H](c3ccc(Cl)cc3)[C@@H](c3ccc(Cl)cc3)N2C(=O)N2CCNC(=O)C2)c(OC(C)C)c1 [Nutlin-3] (partner dose 0.5 µM) reads 104%; that for `Cn1sc(=O)n(Cc2ccccc2)c1=O` + CCN(CC)CCCCNc1ncc2cc(-c3cc(OC)cc(OC)c3)c(NC(=O)NC(C)(C)C)nc2n1 [PD173074] (partner dose 0.5 µM), 108%; that for `C[C@@H](N)c1ccc(C(=O)Nc2ccnc3[nH]ccc23)cc1` + NC(=O)c1ccc(N(C(N)=O)c2c(F)cccc2F)nc1-c1ccc(F)cc1F [VX702] (partner dose 2 µM), 64.5%. `CCCCCCCCCCCCCCCCCCOP(=O)([O-])OC1CC[N+](C)(C)CC1` [Perifosine] + Oc1cc(-c2nc(-c3ccccc3)[nH]c2-c2ccncc2)ccc1Cl [L779450] (partner dose 1 µM): the cell count stood at 62.4%. Consider `Cn1sc(=O)n(Cc2ccccc2)c1=O` + COc1ccc2c(c1)CCC1C2CCC2(C)C(NCCCCCCN3C(=O)C=CC3=O)CCC12 [U73122] (partner dose 2 µM), for which the cell count is 56.8%. The result for `CCCCCCCCCCCCCCCCCCOP(=O)([O-])OC1CC[N+](C)(C)CC1` [Perifosine] + C[C@]1(O)C[C@@H](c2nc(-c3ccc4ccc(-c5ccccc5)nc4c3)c3c(N)nccn32)C1 [OSI906] (partner dose 2 µM) reads 69.2%; that for `Cn1sc(=O)n(Cc2ccccc2)c1=O` + Cn1cc(/C=C2\C(=O)Nc3cccnc32)c2ccccc21 [GW441756] (partner dose 2 µM), 93.8%.
